About 300 (9.4%) of roughly 3,200 compounds showed activity. The list shows a part of the results, in another mix than the full data.
System: A673/TR/shEF
Assay: cell viability (LOESS-normalised, relative to median of negative controls) (log2 ratio); higher = more viable cells (less compound effect), active = hit call of the paper (over 3 MAD below the median)
Settings: treatment time: 72 h
Outline: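 A673/TR/shEF Ewing sarcoma cells (1,500 per well, 384-well plates) were grown with or without doxycycline to induce EWS-FLI1 shRNA knockdown, starting 24 h before compounds. Library compounds at two or more concentrations, with DMSO controls, were added for three days. Cell viability was read by CellTiter-Glo luminescence on an Envision reader, then LOESS-corrected per plate, divided by the median of negative controls and log2-transformed. Hits were wells at least three median absolute deviations from the median of all screened wells.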

[1] = 0.25 µM, library screen: screen1, EWS-FLI1 expression: high (no doxycycline)
[2] = 0.25 µM, library screen: screen1, EWS-FLI1 expression: low (doxycycline-induced shRNA knockdown)
[3] = 2.5 µM, library screen: screen1, EWS-FLI1 expression: high (no doxycycline)
[4] = 2.5 µM, library screen: screen1, EWS-FLI1 expression: low (doxycycline-induced shRNA knockdown)
[5] = 0.25 µM, library screen: screen2, EWS-FLI1 expression: high (no doxycycline)
[6] = 0.25 µM, library screen: screen2, EWS-FLI1 expression: low (doxycycline-induced shRNA knockdown)
[7] = 2.5 µM, library screen: screen2, EWS-FLI1 expression: high (no doxycycline)
[8] = 2.5 µM, library screen: screen2, EWS-FLI1 expression: low (doxycycline-induced shRNA knockdown)
[9] = 0.103 µM, library screen: screen3, EWS-FLI1 expression: high (no doxycycline)
[10] = 0.103 µM, library screen: screen3, EWS-FLI1 expression: low (doxycycline-induced shRNA knockdown)
[11] = 0.308 µM, library screen: screen3, EWS-FLI1 expression: high (no doxycycline)
[12] = 0.308 µM, library screen: screen3, EWS-FLI1 expression: low (doxycycline-induced shRNA knockdown)
[13] = 0.926 µM, library screen: screen3, EWS-FLI1 expression: high (no doxycycline)
[14] = 0.926 µM, library screen: screen3, EWS-FLI1 expression: low (doxycycline-induced shRNA knockdown)
[15] = 2.8 µM, library screen: screen3, EWS-FLI1 expression: high (no doxycycline)
[16] = 2.8 µM, library screen: screen3, EWS-FLI1 expression: low (doxycycline-induced shRNA knockdown)
[17] = 8.3 µM, library screen: screen3, EWS-FLI1 expression: high (no doxycycline)
[18] = 8.3 µM, library screen: screen3, EWS-FLI1 expression: low (doxycycline-induced shRNA knockdown)
[19] = 25 µM, library screen: screen3, EWS-FLI1 expression: high (no doxycycline)
[20] = 25 µM, library screen: screen3, EWS-FLI1 expression: low (doxycycline-induced shRNA knockdown)

COc1ccc(OC)c(CN2CCN(Cc3ccc(OC)c(OC)c3OC)CC2)c1
cell viability (log2) [1]: inactive: 0.0155
cell viability (log2) [2]: inactive: 0.0265
cell viability (log2) [3]: inactive: 0.162
cell viability (log2) [4]: inactive: 0.0778

COc1cc2c(cc1OC)[C@@H]1C(=O)c3c(cc4c(c3O)C=CC(C)(C)O4)O[C@@H]1CO2
cell viability (log2) [1]: inactive: -0.0181
cell viability (log2) [2]: inactive: -0.000972
cell viability (log2) [3]: active: -0.392
cell viability (log2) [4]: inactive: -0.0174

O=C1NCC2(CCN(CCc3ccccc3)CC2)O1
cell viability (log2) [1]: inactive: -0.0202
cell viability (log2) [2]: inactive: 0.0747
cell viability (log2) [5]: inactive: 0.0181
cell viability (log2) [6]: inactive: 0.097
cell viability (log2) [3]: inactive: 0.108
cell viability (log2) [4]: inactive: 0.0398
cell viability (log2) [7]: inactive: 0.129
cell viability (log2) [8]: inactive: 0.0095

COc1cc(C)c(C(=O)Oc2cc(C)c(C(=O)O)c(O)c2C)c(OC)c1C
cell viability (log2) [1]: inactive: 0.0483
cell viability (log2) [2]: inactive: 0.0178
cell viability (log2) [3]: inactive: 0.131
cell viability (log2) [4]: inactive: 0.00206

Nc1nc(NCCNc2ncc(-n3ccnc3)c(-c3ccc(Cl)cc3Cl)n2)ccc1[N+](=O)[O-]
cell viability (log2) [9]: inactive: 0.0217
cell viability (log2) [10]: inactive: -0.00304
cell viability (log2) [11]: inactive: 0.104
cell viability (log2) [12]: inactive: -0.0076
cell viability (log2) [13]: inactive: 0.0742
cell viability (log2) [14]: inactive: -0.0267
cell viability (log2) [15]: inactive: 0.0566
cell viability (log2) [16]: inactive: -0.237
cell viability (log2) [17]: inactive: -0.0267
cell viability (log2) [18]: inactive: 0.0274
cell viability (log2) [19]: inactive: 0.00604
cell viability (log2) [20]: inactive: -0.0487

CC(=O)O[C@@H]1C[C@H]2C(C)(C)C(=O)C=C[C@]2(C)[C@H]2CC[C@@]3(C)[C@H](c4ccoc4)OC(=O)[C@H]4O[C@]43[C@@]21C
cell viability (log2) [1]: inactive: 0.164
cell viability (log2) [2]: inactive: -0.0142
cell viability (log2) [3]: inactive: 0.196
cell viability (log2) [4]: inactive: 0.111

CSCC[C@H](NC=O)C(=O)N[C@@H](Cc1ccccc1)C(=O)O
cell viability (log2) [1]: inactive: 0.0894
cell viability (log2) [2]: inactive: 0.169
cell viability (log2) [3]: inactive: 0.0791
cell viability (log2) [4]: inactive: 0.113

Cc1cc2nc3c(=O)[nH]c(=O)nc-3n(C[C@H](O)[C@H](O)[C@H](O)CO)c2cc1C
cell viability (log2) [9]: inactive: 0.0621
cell viability (log2) [10]: inactive: -0.0327
cell viability (log2) [11]: inactive: -0.0824
cell viability (log2) [12]: inactive: -0.00521
cell viability (log2) [13]: inactive: 0.0196
cell viability (log2) [14]: inactive: 0.0373
cell viability (log2) [15]: inactive: -0.0375
cell viability (log2) [16]: inactive: 0.0522
cell viability (log2) [17]: inactive: 0.0494
cell viability (log2) [18]: inactive: 0.121
cell viability (log2) [19]: inactive: 0.118
cell viability (log2) [20]: inactive: 0.0177

CCOC(=O)c1c[nH]c2c(C)cccc2c1=O
cell viability (log2) [1]: inactive: 0.111
cell viability (log2) [2]: inactive: 0.0771
cell viability (log2) [3]: inactive: 0.1
cell viability (log2) [4]: inactive: -0.0609

O=C(O)CN(CCN(CC(=O)O)CC(=O)O)CC(=O)O
cell viability (log2) [1]: inactive: 0.122
cell viability (log2) [2]: inactive: 0.135
cell viability (log2) [3]: inactive: 0.205
cell viability (log2) [4]: inactive: 0.185

CC(C)(C)[C@]1(O)CCN2CC3c4ccccc4CCc4cccc(c43)[C@@H]2C1 (some centres not stated)
cell viability (log2) [5]: inactive: 0.166
cell viability (log2) [6]: inactive: 0.165
cell viability (log2) [7]: inactive: 0.11
cell viability (log2) [8]: inactive: 0.076

CO[C@H]1/C=C/O[C@@]2(C)Oc3c(C)c(O)c4c(O)c(c5c(nc6cc(C)ccn65)c4c3C2=O)NC(=O)/C(C)=C\C=C\[C@H](C)[C@H](O)[C@@H](C)[C@@H](O)[C@@H](C)[C@H](OC(C)=O)[C@@H]1C
cell viability (log2) [9]: inactive: -0.0707
cell viability (log2) [10]: inactive: 0.0464
cell viability (log2) [11]: inactive: 0.0386
cell viability (log2) [12]: inactive: 0.036
cell viability (log2) [13]: inactive: -0.103
cell viability (log2) [14]: inactive: 0.0741
cell viability (log2) [15]: inactive: 0.0459
cell viability (log2) [16]: inactive: 0.0491
cell viability (log2) [17]: inactive: 0.0185
cell viability (log2) [18]: inactive: 0.0543
cell viability (log2) [19]: inactive: -0.064
cell viability (log2) [20]: inactive: -0.0313

C[C@]12C=CC(=O)N[C@@H]1CC[C@@H]1[C@@H]2CC[C@]2(C)[C@@H](C(=O)Nc3cc(C(F)(F)F)ccc3C(F)(F)F)CC[C@@H]12
cell viability (log2) [9]: inactive: 0.0707
cell viability (log2) [10]: inactive: 0.0111
cell viability (log2) [11]: inactive: -0.025
cell viability (log2) [12]: inactive: 0.08
cell viability (log2) [13]: inactive: 0.071
cell viability (log2) [14]: inactive: 0.105
cell viability (log2) [15]: inactive: 0.0417
cell viability (log2) [16]: inactive: 0.0227
cell viability (log2) [17]: inactive: 0.0762
cell viability (log2) [18]: inactive: 0.023
cell viability (log2) [19]: inactive: 0.139
cell viability (log2) [20]: inactive: 0.0563

Clc1cccc(Cl)c1NC1=NCCN1
cell viability (log2) [9]: inactive: 0.051
cell viability (log2) [10]: inactive: 0.0573
cell viability (log2) [1]: inactive: 0.0339
cell viability (log2) [2]: inactive: 0.0998
cell viability (log2) [5]: inactive: 0.154
cell viability (log2) [6]: inactive: 0.0974
cell viability (log2) [11]: inactive: 0.063
cell viability (log2) [12]: inactive: 0.0667
cell viability (log2) [13]: inactive: 0.0404
cell viability (log2) [14]: inactive: 0.0791
cell viability (log2) [3]: inactive: 0.0959
cell viability (log2) [4]: inactive: 0.141
cell viability (log2) [7]: inactive: 0.124
cell viability (log2) [8]: inactive: 0.0925
cell viability (log2) [15]: inactive: 0.0651
cell viability (log2) [16]: inactive: 0.0423
cell viability (log2) [17]: inactive: 0.0821
cell viability (log2) [18]: inactive: -0.0179
cell viability (log2) [19]: inactive: 0.00253
cell viability (log2) [20]: inactive: 0.054

CCN(CC)C(C)CN1c2ccccc2Sc2ccccc21 (configuration not stated)
cell viability (log2) [1]: inactive: 0.13
cell viability (log2) [2]: inactive: 0.0955
cell viability (log2) [3]: inactive: 0.209
cell viability (log2) [4]: inactive: 0.294

CCCNC(=O)NS(=O)(=O)c1ccc(Cl)cc1
cell viability (log2) [1]: inactive: 0.113
cell viability (log2) [2]: inactive: 0.0415
cell viability (log2) [5]: inactive: 0.233
cell viability (log2) [6]: inactive: 0.0846
cell viability (log2) [3]: inactive: 0.176
cell viability (log2) [4]: inactive: 0.0747
cell viability (log2) [7]: inactive: 0.0486
cell viability (log2) [8]: inactive: 0.0715

C=CC(C)(C)c1c2c(c(O)c3c(=O)c4ccc(O)c(O)c4oc13)C=CC(C)(C)O2
cell viability (log2) [1]: inactive: -0.0194
cell viability (log2) [2]: inactive: 0.182
cell viability (log2) [3]: inactive: -0.0746
cell viability (log2) [4]: inactive: 0.15

COc1cc(CN2CCN(Cc3cccc(F)c3)CC2)cc2c1OCO2
cell viability (log2) [1]: inactive: 0.0873
cell viability (log2) [2]: inactive: 0.0661
cell viability (log2) [3]: inactive: 0.0312
cell viability (log2) [4]: inactive: 0.0566

CNCCc1ccccn1
cell viability (log2) [1]: inactive: 0.113
cell viability (log2) [2]: inactive: 0.0801
cell viability (log2) [3]: inactive: 0.145
cell viability (log2) [4]: inactive: 0.116

CCOC(=O)[C@H]1O[C@@H]1C(=O)N[C@@H](CC(C)C)C(=O)NCCC(C)C
cell viability (log2) [5]: inactive: 0.0895
cell viability (log2) [6]: inactive: 0.083
cell viability (log2) [7]: inactive: 0.149
cell viability (log2) [8]: inactive: 0.0496

Cn1cc[nH]c1=S
cell viability (log2) [9]: inactive: 0.0612
cell viability (log2) [10]: inactive: 0.0479
cell viability (log2) [1]: inactive: 0.118
cell viability (log2) [2]: inactive: 0.0971
cell viability (log2) [11]: inactive: 0.131
cell viability (log2) [12]: inactive: 0.0443
cell viability (log2) [13]: inactive: 0.019
cell viability (log2) [14]: inactive: 0.0538
cell viability (log2) [3]: inactive: 0.173
cell viability (log2) [4]: inactive: 0.18
cell viability (log2) [15]: inactive: -0.00547
cell viability (log2) [16]: inactive: 0.0117
cell viability (log2) [17]: inactive: 0.0311
cell viability (log2) [18]: inactive: 0.0678
cell viability (log2) [19]: inactive: 0.0326
cell viability (log2) [20]: inactive: 0.0833

— the supplement of paper PMC6089552
